Experimental data as given in PMC4336329 (PLoS ONE, 2015).
Hit rate of the full screen: of about 310,000 compounds, about 14,000 (4.5%) showed an effect of 50% or more. Effects have a minus sign here. This is one part of the list.

These compounds were tested against human ether-à-go-go-related gene (hERG) potassium channel (human, UniProt Q12809) (assay: primary screen, population patch clamp on CHO cells stably expressing hERG).
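Further: peak tail current of the secondary pulse compared with the same well before compound.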

Chain of human ether-à-go-go-related gene (hERG) potassium channel (Q12809 whole entry, looked up): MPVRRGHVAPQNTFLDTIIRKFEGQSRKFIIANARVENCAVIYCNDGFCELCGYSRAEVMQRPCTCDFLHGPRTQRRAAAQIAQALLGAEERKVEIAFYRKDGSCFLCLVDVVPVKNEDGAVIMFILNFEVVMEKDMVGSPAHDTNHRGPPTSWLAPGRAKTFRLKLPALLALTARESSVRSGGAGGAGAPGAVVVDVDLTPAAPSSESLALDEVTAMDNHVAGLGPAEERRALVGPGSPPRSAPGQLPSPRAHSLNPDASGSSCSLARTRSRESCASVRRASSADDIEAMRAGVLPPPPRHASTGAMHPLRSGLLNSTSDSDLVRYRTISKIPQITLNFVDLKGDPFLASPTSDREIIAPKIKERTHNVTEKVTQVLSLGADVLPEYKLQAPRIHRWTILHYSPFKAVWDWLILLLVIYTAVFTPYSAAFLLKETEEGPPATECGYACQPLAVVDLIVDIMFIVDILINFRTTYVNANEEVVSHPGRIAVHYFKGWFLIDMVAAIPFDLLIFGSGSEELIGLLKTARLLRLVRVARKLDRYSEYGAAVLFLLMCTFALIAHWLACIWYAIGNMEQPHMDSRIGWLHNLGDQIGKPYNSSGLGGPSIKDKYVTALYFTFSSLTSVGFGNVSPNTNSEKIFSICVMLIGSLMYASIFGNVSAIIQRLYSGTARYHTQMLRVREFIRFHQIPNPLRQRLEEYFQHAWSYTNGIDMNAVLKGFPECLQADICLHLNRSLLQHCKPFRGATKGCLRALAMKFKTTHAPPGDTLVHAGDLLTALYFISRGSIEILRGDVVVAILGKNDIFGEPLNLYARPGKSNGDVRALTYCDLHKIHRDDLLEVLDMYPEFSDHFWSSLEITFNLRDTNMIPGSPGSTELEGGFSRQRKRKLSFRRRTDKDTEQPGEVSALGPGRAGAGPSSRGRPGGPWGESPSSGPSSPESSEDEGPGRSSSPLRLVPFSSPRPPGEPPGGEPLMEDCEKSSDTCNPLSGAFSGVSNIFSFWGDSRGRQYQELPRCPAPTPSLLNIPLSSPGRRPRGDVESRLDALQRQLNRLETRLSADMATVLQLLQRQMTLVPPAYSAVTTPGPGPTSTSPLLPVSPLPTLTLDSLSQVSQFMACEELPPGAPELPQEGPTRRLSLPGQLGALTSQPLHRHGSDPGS

| Structure (SMILES) | hERG current change (%, negative = inhibition) at 10uM [%] |
| --- | --- |
| CC1(C)Nc2ccccc2C(=O)N1c1ccccc1 | 20.5 |
| O=C(O)c1cccc(NC(CNS(=O)(=O)c2ccc(Cl)cc2)c2ccccc2)c1 (stereo not shown) | 16.5 |
| CCC(Oc1ccccc1)C(=O)Nc1nnc(C(F)(F)F)s1 (stereo not shown) | 6.98 |
| O=C(O)[C@H]1CCC(=O)N1Cc1ccco1 | 4.59 |
| CCOC(=O)C1C(=O)NC(N2CCCCC2)=NC1c1ccco1 (stereo not shown) | 8.22 |
| Cn1cc(C(=O)NCc2ccccc2F)cn1 | 13.2 |
| CCCOc1ccc2c(C)c(CC(=O)OC)c(=O)oc2c1 | -22.7 |
| CCOCCc1nnc(NC(=O)c2cccs2)s1 | 5.54 |
| CC1CCN(c2nc(-c3ccco3)c3c(c2C#N)CC(C)(C)OC3)CC1 | 8.62 |
| COc1ccccc1CCNC(=O)CNC(=O)Cc1cccc2ccccc12 | -1.6 |
| S=C(NCCCc1ccccc1)Nc1ccccc1Cl | 2.38 |
| O=C(N/N=C/c1ccc(N2CCOCC2)s1)c1ccccc1Cl | -4.31 |
| C[N+](C)(C)CCOC(=O)C1(c2ccccc2)CCCC1.[I-] | 9.34 |
| O=C(Nc1ccncc1)c1ccc(Cl)c(S(=O)(=O)N2CCc3ccccc32)c1 | -16.9 |
| CCC(CC)C(=O)Nc1cccc(/C(C)=N/NC(=O)c2ccccc2Cl)c1 | 6.73 |
| COc1ccc(OCCCC(=O)Nc2ccc(N3CCOCC3)cc2)cc1 | 19.8 |
| Cn1c(=O)c2c(nc(CN3CCN(C(=O)c4ccco4)CC3)n2Cc2ccc(Cl)cc2)n(C)c1=O | -64.8 |
| O=C(O)CCCNC(=O)Cc1ccccc1 | 5.08 |
| O=C(O)Cc1ccc(NS(=O)(=O)c2ccccc2Cl)cc1 | 24.4 |
| CC(C)CCC(O)(CCC(C)C)C(=O)NNc1ccccc1 | -0.649 |
| CCN(CC(=O)N1CCN(C)CC1)S(=O)(=O)c1ccc(Cl)cc1 | -5.94 |
| O=C1C2CC=C(Cl)CC2C(=O)N1CNc1ccccn1 (stereo not shown) | 15.7 |
| COc1ccc(Cl)cc1NC(=O)CN(C)CC(=O)Nc1ccc(Br)cc1 | -7.27 |

| Structure (SMILES) | hERG current change (%, negative = inhibition) at 10uM [%] |
| --- | --- |
| COc1ccccc1C(=O)NCC(c1cccnc1)N(C)C (stereo not shown) | 3.5 |
| CC(=O)c1cccc(N=C2NC(=O)C(CO)(CO)S2)c1 | -2.3 |
| CC(C)NC(=O)NS(=O)(=O)c1cnccc1N1CCCCC1 | 15.1 |
| CCOC(=O)C1=C(CC)Nc2ccccc2N=C1NC(=O)c1cccc(S(=O)(=O)N2CCOCC2)c1 | -25.9 |
| O=C(Nc1ccc2c(c1)OCO2)C1CCN(S(=O)(=O)c2ccc3c(c2)OCCO3)CC1 | 7.45 |
| COc1ccc(CNC(=O)COc2cc(O)c3c(c2)OC(C)(C)CC3=O)cc1 | -27.5 |
| Cc1cccc(-n2c(O)c(C=NC34CN5CN(CN(C5)C3)C4)c(=O)[nH]c2=O)c1 | 8.4 |
| CCOC(=O)Nc1cc(NC(=O)OCC)c(C)nc1C | -7.11 |
| CC(Oc1cc2oc(=O)c3c(c2cc1Cl)CCC3)C(=O)N1C[C@H]2C[C@@H](C1)c1cccc(=O)n1C2 (stereo partly shown) | -10.9 |
| Cc1ccccc1N1CCN(Cc2cccc(C(=O)O)c2)CC1.Cl | 1.27 |
| CS(=O)(=O)N1CC(C(=O)NC2CC2)Oc2ccc(Cl)cc21 (stereo not shown) | 0.0647 |
| Cc1nn(-c2ccccc2)c(Cl)c1/C=N\NC(=O)c1cnccn1 | -5 |
| CC(=O)Nc1ccc(NC(=O)c2cc(=O)c3ccccc3o2)cc1 | 12.2 |
| CCOC(=O)/C(C)=N/NC(=O)c1ccc([N+](=O)[O-])cc1 | 3.05 |
| CCN(C(=O)CSc1nc(-c2ccccc2)cn1N)c1c(N)n(Cc2ccccc2)c(=O)[nH]c1=O | -0.319 |
| O=C(NCC(c1ccc(F)cc1)N1CCOCC1)c1cccnc1Sc1ccccc1Cl (stereo not shown) | -14.9 |
| CC1=CC(=C(C#N)c2nc3ccccc3s2)C=C(C)N1CC1CCCO1 (stereo not shown) | 7.19 |
| CCOC(=O)N1CCC(NC(=O)CN(C)S(=O)(=O)c2cc3c(cc2Cl)NC(=O)CO3)CC1 | -3.47 |
| COc1ccc(CNC(=O)c2ccc(Cn3cc(Cl)cn3)o2)cc1 | -27.9 |
| CC(Sc1nnnn1C)C(=O)Nc1ccc(Oc2ccccc2)cc1 (stereo not shown) | -16.2 |
| Cc1ccccc1NC(=O)Cn1c(=O)sc2ccccc21 | -0.661 |
| COc1ccc(Br)cc1C(=O)O | -12.2 |
| CC(=O)c1c(N2CCOCC2)nc(=S)n(Cc2ccccc2)c1C | -17.5 |

| Structure (SMILES) | hERG current change (%, negative = inhibition) at 10uM [%] |
| --- | --- |
| Cn1c(=O)c2c(SC3CCCC3)nc(C3CC3)nc2n(C)c1=O | 18.8 |
| Cl.OC(CNCCCN1CCCCC1)COc1ccccc1 (stereo not shown) | -4.25 |
| Cc1ccc(S(=O)(=O)N2CCOC2CNC(=O)C(=O)NCCc2ccc(S(N)(=O)=O)cc2)cc1 (stereo not shown) | -12.7 |
| CC(C)CCNC(=O)C1CC(=O)N(CCc2ccccc2)C1 (stereo not shown) | 5.93 |
| O=C(CNS(=O)(=O)c1cccc2nsnc12)NC1CCCCC1 | 5.59 |
| Cc1ccc(C(=O)O/N=C2\CCCc3ccccc32)cc1 | 8.69 |
| COc1cccc(CN(C)CC(=O)NCc2ccccc2Cl)c1OC | -7.66 |
| Cc1ccc(OCc2cc(C(=O)NCCc3cccnc3)no2)cc1C | -34.6 |
| COCCNC(=O)c1onc(CSc2ccccc2)c1C(=O)O | 7.09 |
| Cc1cc2nccc(-c3ccncc3)n2n1 | 32.3 |
| COc1ccccc1N(CC(=O)NC1CC2CCC1C2)S(=O)(=O)c1ccc(C)cc1 (stereo not shown) | -38 |
| CC(=O)N1CCOc2ccc(S(=O)(=O)NCc3ccc(C)cc3)cc21 | 1.55 |
| CCOc1ccc(-c2nc(-c3cccs3)c(CC(=O)O)s2)cc1OC | 19.1 |
| Cc1cccc(NC(=S)Nc2ccc(Cl)c(Cl)c2)c1 | 18.5 |
| Cn1c(-c2sccc2OCc2cccc(C(F)(F)F)c2)n[nH]c1=S | -19.8 |
| COc1ccc(Cl)cc1NC(=O)/C=C\C(=O)O | -0.13 |
| CC(C)(C)c1ccc(-c2nc(C#N)c(N3CCC(C(N)=O)CC3)o2)cc1 | -63.3 |
| O=C(C1CCCN(Cc2cc(Br)ccc2O)C1)N1CCCCC1.O=C(O)C(=O)O (stereo not shown) | -31.6 |
| CC1CCCN(C(=O)c2nn(C)c3c2CSc2ccccc2-3)C1 (stereo not shown) | -11.7 |
| COC(=O)C1CCN(C(=O)c2sc3nc(-c4ccc(F)cc4)cn3c2C)CC1 | -59.5 |
| COCCn1c(SCC(=O)Nc2cc(C)on2)nc2ccccc2c1=O | -4.12 |
| O=[N+]([O-])c1cccc(-c2nc3ccc([N+](=O)[O-])cc3[nH]2)c1 | 8.34 |
| CC(C)Cn1c2c(c(O)c(C(=O)Nn3c(Cc4ccccc4)nc4ccccc4c3=O)c1=O)CCCC2 | -23.4 |

| Structure (SMILES) | hERG current change (%, negative = inhibition) at 10uM [%] |
| --- | --- |
| CCOC(=O)N1CCC(NC(=O)c2cnn3ccccc23)CC1 | 9.62 |
| CCOC(=O)C1=C(C)NC(C)=C(C(=O)OCC)C1C(=O)OCC(=O)N1CCC(C)CC1 | 16.7 |
| Cc1cccc(OCCCC(=O)Nc2ccc(Br)cc2)c1 | 15.8 |
| CN(C)C(=O)Oc1ccc2c(=O)c(Oc3ccccc3Br)coc2c1 | 7.02 |
| CC(C)c1ccc(NC(=O)NCc2cccnc2)cc1 | 11.9 |
| CCCCNC(=O)N(c1c(N)n(Cc2ccccc2)c(=O)[nH]c1=O)C1CCCC1 | 19.1 |
| CNc1ncnc(Sc2ccc(Cl)cc2)c1[N+](=O)[O-] | 3.6 |
| C=COCCNC(=O)C(=O)NCC(C)C | -2.42 |
| CCOC(=O)c1c(C)n(C)c2cc([N+](=O)[O-])c(O)c([N+](=O)[O-])c12 | 1.25 |
| O=C(O)CCC(C(=O)O)n1c(O)c(C2=c3ccccc3=NC2=O)sc1=S (stereo not shown) | 20.5 |
| N/C(=N\OC(=O)C1CCCCC1)c1cccnc1 | 14.1 |
| O=C(O)Cn1nc2c3c(cccc3c1=O)-c1ccccc1-2 | 8.18 |
| COc1ccc(OC)c(/C=N/NC(=O)CCc2c(C)n[nH]c2C)c1 | 6.79 |
| CN1CCN(c2ccc(C(N)=O)cc2N)CC1 | 6.81 |
| O=C(/C=C/c1cccc([N+](=O)[O-])c1)Nc1cc(C(=O)O)cc(C(=O)O)c1 | 25.2 |
| Cc1ccc(OCCOCCn2ccnc2)c(Br)c1 | -38.4 |
| Cn1c(CCN2CCCCC2)nc2cc([N+](=O)[O-])ccc21 | -70.2 |
| CSCCC(=O)N1CCC(n2nccc2NC(=O)CCCc2ccccc2)CC1 | -5.8 |
| CC1CN(c2oc(-c3ccco3)nc2S(=O)(=O)c2ccccc2)CC(C)O1 (stereo not shown) | -32.1 |
| Cc1cc(Nc2ccc(F)cc2)nc(N)n1 | -14.9 |
| CCN(c1ccccc1)S(=O)(=O)c1ccc(Cl)c(NC(=O)COC(=O)C2CC2C)c1 (stereo not shown) | -7.92 |
| Fc1ccccc1/C=C/c1ccc2ccccc2n1 | 14.4 |
